Where “and” joins values, the source holds several entries; their conditions need not be identical. Equal entries are not always repeated.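 Growth conditions: 96-well plates. Treatment: test compound, 48 hours, 5 concentrations. Analysis: linear interpolation between bracketing concentrations; unreached endpoints set to highest concentration. GI50 is the concentration that inhibits growth by half. Definition used: TGI = concentration required for complete inhibition of growth.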
test system: NCI-H322M lung; experiment: NCI anticancer screen, dose series, 48 h

Question: `Cc1nn(-c2ccc(Cl)cc2)c2ncnc(N/N=C/c3ccccc3O)c12` was tested. Which GI50 did it give?
Answer: 0.322 µM and 0.294 µM

Question: What about the TGI of the same molecule?
Answer: 24.5 µM and > 55.1 µM

Question: Which results are given for `O=C(/C=C/C12c3ccccc3C(c3ccccc31)C1C(=O)NC(=O)C12)c1ccccn1` (stereo unspecified)?
Answer: GI50: 1.45 µM; TGI: 2.86 µM

Question: For `CN(C)c1ccc(/C=C(\NC(=O)c2ccccc2)C(=O)NC(CC(=O)O)C(=O)O)cc1` (stereo unspecified), which TGI is on record?
Answer: > 100 µM

Question: Which TGI does the source give for `Cn1c2ccccc2n2c3ncccc3c(=O)c(C#N)c12` here?
Answer: > 100 µM

Question: How did the TGI turn out when `Cc1ccccc1-c1nc2c(N)nc(N)nc2nc1N` was run?
Answer: > 100 µM

Question: How did the TGI turn out when `CC1=CC2C3(C)C(C)(C(C)=CP3(=O)c3c(C(C)C)cc(C(C)C)cc3C(C)C)C1P2(=O)c1c(C(C)C)cc(C(C)C)cc1C(C)C` (stereo unspecified) was run?
Answer: 8.56 µM

Question: What does the source list for `Nc1nc2c(c3cnccc13)C(c1ccc(Cl)c(Cl)c1)Cc1cnccc1-2` (stereo unspecified)?
Answer: GI50: 1.31 µM; TGI: 18 µM

Question: For `CN(C)CCN(c1ccccn1)c1ccccn1`, which TGI is on record?
Answer: > 100 µM

Question: Which GI50 does the source give for `CCN(CC)Cc1cc(Nc2nc(NC3CCC(N(C)C)CC3)c3ccccc3n2)ccc1OC` (stereo unspecified) here?
Answer: 12.7 µM

Question: And the TGI?
Answer: 34.3 µM

Question: For `O=CC(I)=C(c1ccccc1)c1ccccc1`, which TGI is on record?
Answer: 17.6 µM

Question: `O=c1oc2ccccc2c(O)c1Cc1ccc(Cc2c(O)c3ccccc3oc2=O)cc1` was tested. Which TGI did it give?
Answer: > 100 µM

Question: For `OCc1cn(Cc2ccccc2)c2ccccc12`, which TGI is on record?
Answer: > 100 µM

Question: Which TGI does the source give for `O=C1NC(=O)c2c1n(Cc1ccccc1)c(=O)n2Cc1ccccc1` here?
Answer: > 100 µM

Question: Which results are given for `FC(F)(F)Oc1cccc(-c2cc(NCCCCCCNc3cc(-c4cccc(OC(F)(F)F)c4)nc4ccc(N5CCCC5)cc34)c3cc(N4CCCC4)ccc3n2)c1`?
Answer: GI50: 1.77 µM; TGI: 3.18 µM

Question: Which TGI does the source give for `CC1(C)CC(=O)C2=C(C1)C(c1ccccc1Cl)C1C(=O)CC(C)(C)CC1(O)O2` (stereo unspecified) here?
Answer: > 100 µM

Question: Which TGI does the source give for `OCc1cc2c(cn1)[nH]c1ccc(NCc3ccccc3)cc12` here?
Answer: > 100 µM

Question: `O=C1[C@@H]2C(c3c(Cl)cccc3Cl)=NO[C@@H]2C(=O)N1c1ccc(Cc2ccc(N3C(=O)[C@H]4C(c5c(Cl)cccc5Cl)=NO[C@H]4C3=O)cc2)cc1` was tested. Which TGI did it give?
Answer: > 100 µM

Question: Which results are given for `CN(C)CCCC1(c2ccc(F)cc2)OCc2cc(-c3cccc4[nH]ccc34)ccc21` (stereo unspecified)?
Answer: GI50: 1.63 µM; TGI: 3 µM

Question: How did the TGI turn out when `O=C(/C=C/c1ccc(Cl)cc1)Oc1ccc(C=C2CCC/C(=C\c3ccc(OC(=O)/C=C/c4ccc(Cl)cc4)cc3)C2=O)cc1` was run?
Answer: > 100 µM

Question: With `Cc1nc2ccc(Cl)cc2c(-n2ccnc2)c1CCn1ccnc1` as the molecule, how does the TGI read?
Answer: > 100 µM

Question: `c1ccc2c(c1)SCCCS2` was tested. Which TGI did it give?
Answer: > 100 µM

Question: For `COc1cc2ccc3c4cc(OC)c(OC)cc4c[n+](C)c3c2cc1O`, which TGI is on record?
Answer: > 100 µM

Question: `CCn1c2c(c3ccccc3c1=O)C(=O)c1ccccc1-2` was tested. Which TGI did it give?
Answer: > 100 µM

Question: `CC(=O)c1ccc(Oc2c3ccccc3nc3ccccc23)cc1` was tested. Which TGI did it give?
Answer: 33 µM

Question: For `COCOc1ccc(C(=O)Oc2cccc3c2OC(C)(C)O3)c(OCOC)c1`, which TGI is on record?
Answer: > 100 µM

Question: How did the TGI turn out when `O=c1[nH]c(NCc2ccncc2)nc2nc[nH]c12` was run?
Answer: > 100 µM

Question: How did the GI50 turn out when `COc1ccc(C(=O)c2cc(OC)c(OC)c(OC)c2OC)cc1O` was run?
Answer: 5.13 µM

Question: And the TGI?
Answer: > 100 µM

Question: Which results are given for `CCCCCCCCCCCCCCCCCCOc1ccccc1CC(=O)NCC[N+]1(C)CCOCC1`?
Answer: GI50: 2.41 µM; TGI: 7.61 µM

Question: How did the GI50 turn out when `O=C1C=C[C@H](O)[C@@]2(CO)O[C@@H]12` was run?
Answer: 24.1 µM

Question: And the TGI?
Answer: 69 µM

Question: With `CCc1c(O)cc(=O)oc1-c1ccc(OC)c(OC)c1` as the molecule, how does the TGI read?
Answer: > 100 µM

Question: With `CC(C)(CO)CNC(=O)c1ccc2[nH]c(O)c(N=Nc3ccc(S(N)(=O)=O)cc3)c2c1` as the molecule, how does the GI50 read?
Answer: > 25 µM

Question: What about the TGI of the same molecule?
Answer: > 25 µM

Question: How did the TGI turn out when `Cn1nc(-c2ccc(S(=O)(=O)/N=C(\NN)Nc3ccc(Cl)cc3)s2)cc1C(F)(F)F` was run?
Answer: 29.4 µM

Question: Which TGI does the source give for `CC(C)C(Br)CCC1=CCC(Br)(Br)C1` (stereo unspecified) here?
Answer: 30.5 µM

Question: With `O=c1c(F)cn2c(=O)n1CCCCCCCn1c(=O)c(F)cn(c1=O)CCCCCCC2` as the molecule, how does the TGI read?
Answer: > 100 µM

Question: How did the TGI turn out when `CC(C)Oc1cccc(N2C(n3ccnc3)=Nc3ccncc3S2(=O)=O)c1` was run?
Answer: 32 µM

Question: `CCOC1C=CC(=O)C(CO)O1` (stereo unspecified) was tested. Which TGI did it give?
Answer: 33.6 µM

Question: With `Nc1ncc(Cc2ccc3c(c2)OCO3)c(N)n1` as the molecule, how does the TGI read?
Answer: > 100 µM

Question: With `COc1cc2c(cc1Nc1nc(N3CCc4ccccc43)c3cc[nH]c3n1)N(C(=O)CN(C)C)CC2` as the molecule, how does the GI50 read?
Answer: 3.63 µM

Question: And the TGI?
Answer: 8.34 µM

Question: Which GI50 does the source give for `CCN(CC)CCCNc1ccc(C)c2sc3ccccc3c(=O)c12` here?
Answer: 1.56 µM

Question: What about the TGI of the same molecule?
Answer: 3.47 µM

Question: With `CN1CSC(=S)N(c2cccc(C(F)(F)F)c2)C1` as the molecule, how does the TGI read?
Answer: 96.6 µM

Question: With `N#Cc1nc2c(S(=O)(=O)c3ccc(Cl)cc3)c(N)n(Nc3cccc(Cl)c3)c2nc1C#N` as the molecule, how does the GI50 read?
Answer: 0.12 µM and 0.0147 µM

Question: How did the TGI turn out when `C[n+]1cc2cc(O)c(O)cc2c2ccc3cc(O)c(O)cc3c21` was run?
Answer: 9.84 µM

Question: How did the TGI turn out when `COC(=O)/C=C(/C=C1/C(C#N)=C(N)N(c2ccc(Cl)cc2)C1(C)/C(=C\C(=O)OC)C(=O)OC)C(=O)OC` (stereo unspecified) was run?
Answer: > 100 µM

Question: How did the GI50 turn out when `CC1(C)N=C(N)N=C(N)N1c1ccc(CCC(=O)Nc2ccc(S(=O)(=O)F)cc2)cc1` was run?
Answer: 4.76 µM

Question: What about the TGI of the same molecule?
Answer: > 100 µM

Question: `Cn1c([N+](=O)[O-])cnc1C=C1C(=O)c2ccccc2C1=O` was tested. Which GI50 did it give?
Answer: 19.4 µM

Question: What about the TGI of the same molecule?
Answer: 72.2 µM

Question: `O=C(OCc1ccc2c(Br)cc(Br)c(O)c2n1)c1cc2ccccc2[nH]1` was tested. Which GI50 did it give?
Answer: 1.61 µM

Question: What about the TGI of the same molecule?
Answer: 3.24 µM
